# Source: the supplement of paper PMC3334620
# Over roughly 33,000 sequences, “E-score (-0.5 to 0.5)” has its median near -0.012; the highest 2% begin near 0.27. Some of the results follow.
# Target: T1, Vhr1 (UniProt P40522)
# T1 sequence: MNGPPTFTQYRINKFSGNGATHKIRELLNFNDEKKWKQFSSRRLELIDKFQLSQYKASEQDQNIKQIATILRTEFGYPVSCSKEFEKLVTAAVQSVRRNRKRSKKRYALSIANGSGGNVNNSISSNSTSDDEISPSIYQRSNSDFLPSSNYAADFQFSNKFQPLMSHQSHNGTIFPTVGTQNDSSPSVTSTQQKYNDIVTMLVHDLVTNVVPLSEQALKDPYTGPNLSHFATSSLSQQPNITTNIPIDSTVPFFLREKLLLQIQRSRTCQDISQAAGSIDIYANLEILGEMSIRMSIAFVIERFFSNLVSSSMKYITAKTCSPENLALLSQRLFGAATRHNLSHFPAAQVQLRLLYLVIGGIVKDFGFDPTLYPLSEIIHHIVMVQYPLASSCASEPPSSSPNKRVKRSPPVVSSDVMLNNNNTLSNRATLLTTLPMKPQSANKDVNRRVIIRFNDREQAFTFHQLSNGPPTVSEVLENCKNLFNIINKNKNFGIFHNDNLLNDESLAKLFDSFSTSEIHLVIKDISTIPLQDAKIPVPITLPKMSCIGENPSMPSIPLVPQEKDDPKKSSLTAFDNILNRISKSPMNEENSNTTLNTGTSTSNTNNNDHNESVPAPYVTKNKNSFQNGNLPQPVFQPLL
# Experiment: PBM E-score (8-mer binding enrichment) (E-score (-0.5 to 0.5)); higher = stronger / more preferred TF binding; most listed sequences are background and not binding sites
# Settings: protein concentration: 200 nM; construct: GST-full length
# How it was run: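 Masliner-normalised scans of fluorescent anti-GST signal were the basis for scoring. That signal came from GST-tagged yeast transcription factors applied at about 100-200 nM to double-stranded universal all-10-mer Agilent arrays on fresh or once-stripped slides. Each ungapped eight-base word, pooled with its reverse complement, received an E-score from the Universal PBM Analysis Suite.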
row,Sequence,PBM E-score
1,GATTTTGC,-0.195
2,GCGACACC,-0.0564
3,ACCCCTTC,-0.0736
4,CATCGCCG,0.0559
5,CCACCGGC,0.001
6,CGTCTTTA,-0.0165
7,CAGCACTC,0.128
8,ATCGGGTC,0.0603
9,ATTCTTAA,-0.232
10,CCGGGAAC,0.00388
11,ATTAGCAC,-0.03
12,GGACTGCC,-0.108
13,GGACTATA,0.0737
14,AGGTACCG,-0.0235
15,CGAATTGC,-0.215
16,TCGCGGAA,-0.143
17,GAATCTGC,0.0309
18,CTACCCCC,-0.128
19,GAGCCGCA,0.0451
20,CCGACCGA,-0.0804
21,CCGACTCC,0.45
22,GGTAATCA,0.288
23,CTTGCGTC,-0.0324
24,TAAAAGGA,-0.167
25,GACGTGGA,-0.0505

row,Sequence,PBM E-score
1,AAGTAGCC,-0.186
2,AGAGAGAC,-0.0959
3,GCGAATTA,0.103
4,GAGCTTGC,-0.191
5,ACAATTGG,0.0402
6,AACATTTC,-0.213
7,ACAGCGCA,0.118
8,ATCCGGCG,0.00355
9,ATACGGAT,0.0703
10,AAATCCAT,0.131
11,AGCTACAG,-0.0261
12,ATGTGAAT,0.101
13,AGTTTACA,0.00012
14,AAAGAAGC,-0.271
15,CCTCCTTC,-0.09
16,CCAAGCGC,0.0989
17,GGCTCTAC,-0.0583
18,TAAGACAA,-0.136
19,CATAATTA,0.16
20,CTCCGAGC,0.179
21,AAGATGTA,0.0228
22,ACGGGTTC,0.0689
23,ACCCTAAT,-0.0655
24,GACGGTGA,0.1
25,CGTAGAGC,-0.17

row,Sequence,PBM E-score
1,CCATTCGA,-0.172
2,GCAACCAA,0.163
3,CTTCCCAC,-0.0689
4,GGAACACC,-0.0425
5,AGAACTAA,-0.0237
6,ATCGACGG,0.0804
7,GACCCTCC,0.123
8,TCAACGCA,0.0501
9,ATGATTTA,0.295
10,ACACCGAC,0.109
11,GGCAAATA,-0.217
12,CATCGGGA,0.167
13,CAGGAGGG,0.00314
14,GTCCCATA,-0.161
15,CGGACACC,-0.00979
16,AGCGGAGC,-0.102
17,GGGCGTTA,-0.0562
18,GTCCGACA,0.0103
19,TAGTCTGA,0.218
20,CGGATCAA,-0.0846
21,CCGCCGCA,-0.04
22,CTCTCATC,-0.131
23,CCCGGATA,0.136
24,CGTCCACA,-0.108
25,GTATGCTA,-0.044

row,Sequence,PBM E-score
1,CCGCTAGG,-0.2
2,CACCACAA,0.0415
3,CGGGCACG,-0.0348
4,AACCTTCT,-0.317
5,GTAATATA,0.0926
6,ACGTCGCA,-0.128
7,ACTGGGCA,-0.174
8,CCATCAGG,0.113
9,ATATAAGG,-0.0132
10,TATCACGA,0.0244
11,GTAAGAAC,-0.0813
12,CTCGTAAC,-0.0519
13,AATTTCAA,-0.288
14,ACAAACCT,-0.0456
15,AGAGATAA,-0.203
16,CACACACG,0.272
17,ATCGGCTG,0.0723
18,CGTGGACC,-0.19
19,AGTTTTTC,-0.152
20,AACGCAGA,-0.0416
21,CGTTGCCA,-0.221
22,GGGCTGAA,-0.0178
23,ATCGATTC,0.156
24,GCGCAATA,0.0102
25,ATCAGGGG,0.0603

row,Sequence,PBM E-score
1,AGAAGGGC,-0.16
2,GGCACATA,0.13
3,GTGTCCCA,0.169
4,CAGCGAAC,-0.0303
5,GGAGGCAA,-0.158
6,AGGTCGAG,-0.0182
7,AGTTTGGA,0.121
8,AAAATATA,0.0195
9,ATGCAAGG,-0.146
10,CCCTTTGA,-0.0818
11,GCCGCACA,-0.00763
12,ATATAACC,0.175
13,AAACCTAG,-0.0174
14,GCAGCCCA,0.0376
15,TAGGGACA,-0.0417
16,GGAAGAAA,-0.136
17,AAGAAGGG,-0.0454
18,GCCAGGAC,-0.00785
19,CTGTGGCC,-0.111
20,AGCTGTTC,-0.136
21,AAACAGGT,-0.108
22,CAATTAAG,-0.124
23,GACCGTGA,0.091
24,AAAGCAAA,-0.208
25,CACCCATC,0.212

row,Sequence,PBM E-score
1,CTATAAAG,-0.133
2,GATTTGCC,-0.0285
3,TCAACTCA,0.0654
4,GAGCCAAA,-0.0747
5,AATCAGGT,0.268
6,AAGTTCAA,-0.154
7,AATCTCCC,0.149
8,AGCTACCA,0.126
9,TAATGATA,0.224
10,GGTGCCAC,-0.254
11,AAAATGAT,0.123
12,CTTTCCCA,-0.115
13,ACGCTCTA,-0.156
14,CGCTGCGA,0.045
15,AGCGTAAC,-0.242
16,GACGAGTC,0.276
17,CCGTTACG,-0.0486
18,AAAGTTGG,0.0279
19,AATCTGCT,-0.214
20,AGGTTGCC,0.0677
21,AGGCACCT,-0.299
22,CCTGGCCC,-0.0376
23,CTCAATCA,0.33
24,ACGTAACG,-0.0436
25,CTAAGTAA,-0.184

row,Sequence,PBM E-score
1,AGCGCAAG,-0.0521
2,CTCCGTCA,-0.0351
3,AGTGGGTC,0.168
4,AATACGAA,-0.107
5,CATTTAGC,-0.12
6,GTAGAAGA,-0.118
7,CCGCCCTA,-0.029
8,GAAGAGAC,-0.0959
9,AACAGCTA,0.00268
10,CACAACCC,-0.00714
11,AGCGTGCG,0.0988
12,CCATATAA,-0.0032
13,ACGCCGAT,-0.0892
14,AGCCAACT,-0.0285
15,GAGCGTAA,-0.0505
16,GGAAGACC,-0.0913
17,AACTGATT,-0.0115
18,CACATAAG,0.0384
19,GCAAAGGC,-0.166
20,CACCGGGA,-0.0444
21,AGTATACT,-0.0127
22,ATTAGAAA,-0.212
